Experimental data as given in the supplement of paper PMC12632987.
The full ranking holds about 4,500 sequences; the median of “median log2 fold change of GCK-ALFA target abundance (FLAG IP / Myc IP barcode read proportion)” is about 0.078, and the lowest 2% start at about -0.6. Some of the results follow.

B1: GBRAP_160_4606 (protein)
chain: SEKIEEFKKLVKELFEEAKEMIKGQTTEERATIVDVTFGEIILEAIELEVLSDEAIDKIAAIGDATVATILANPDLTDEEIKALIDEAEKKILEILDEEE
B2: GBRAP_74_6549 (protein)
chain: SEELLKEAEEAAKAKDLAKLVELAREALEAGDKETAARILSLLLKTFVENKDEVTLEEADALADVIDEVLASGITELLSREDLKLLVEALAHAQELEAAA
B3: GBRAP_160_4819 (protein)
chain: SSKLEEVLKEIDEAEKRVLEVADTESVAQAATMFEGEFGSLILELEEKGYVSDEALDKIKEIVDETVAYLKANPDLSVEEVKKLITEASKKIKEIIEKDA
B4: GBRAP_52_5855 (protein)
chain: SKEKMRKLAEELLKLKLAGKEEELEKKVKELVATLSEEEILELLKELAELAKKANKEEAEAIAEVAELLADEAEKAGFDEDELSYELAKVYAAAYKVLQK
B5: GBRAP_125_3062 (protein)
chain: AKAANIANLETIARALGYSEDDIAELRKLAEAGSIKNTLIAIALAEGREELAEALARLTEEETAAVLAELAAELAANPELTPEEVLELLLELARRALAAR
B6: GBRAP_184_5237 (protein)
chain: KVLVRTVRAKDAEELRAKLEEVRAEARAEGAVVELIIEVEELTPEKVDVIAEMIAEMAAEGLLTLVEVVSSTPIPEEHIDRLVAAADAAGVRLVIAEPDP
B7: GBRAP_64_6483 (protein)
chain: MEEIEELLKKALEYIEKALELAKKENPEIAKLLEEAKKLLEEAKEKDLEEAADLVAEVADILNEILKNPELSEELKELVSEALDYVSEALWELEEEIEEK
B8: GBRAP_160_4341 (protein)
chain: SERIEKLKEYVNEEFEETKELIEGLSIEQRRVLIEGTLGEIAMELAEDESISDETVDKVIEIRDETIEYLKEHPDLSLEEIKELIDEAREKIIEILEESE
B9: GBRAP_160_4128 (protein)
chain: SSKIKKAVEDMKEDLIETWKATKDLPIDERVKILRAEAYTDLLAMHEELNLSDETFDKLLEVVDKMLEEIRANPNLTDEEVEALIEKMAEEILKIIEEEK
B10: GBRAP_117_2603 (protein)
chain: MSKREKAKKLAKELVELIRKALEEKKTLTPEEREKLEKETLEKVTKIVKEMLELTSEDELEELFAEATKDLTPEERVEAYIIYYEALAEALDERKKEEEE
B11: GBRAP_53_6399 (protein)
chain: NEEEIKKLKEEILKLAKEAAKADEEERAKLVKEIGKALKELVKAGMPEEEITELAREVAKTLKEAGASDRDLVALANTLASLGREEATAEVGEVAVEDLE
B12: GBRAP_52_6362 (protein)
chain: SLEKALELLRKAVEAELAGDEERAEAILREIVANFSEETILEAVKKLAEEIKTKTLEEAEAFLETAIRLADIMLEAGRDEAVADEIEAIAAKAYMEVLKK
B13: GBRAP_128_3385 (protein)
chain: VDPEVIERAKELAERLVKASLEEVPALTREIIEYLATLSPEEQEVLLEELEKAAKKMSLEKLEAFLDTLREERPKLDPETQAFVNELMVEIGEEILEKEE
B14: GBRAP_11_2873 (protein)
chain: DKEKLKKMLELAEELAKLLEELLKKGVDDEELRKKIEEKVEELSKLVKEHGDEAEKKLVEILKELVEKAKKDKENAEEYVKEALAAARVLAGQYLLKLEE
B15: GBRAP_184_5359 (protein)
chain: EVKVVEIEAETKEEALKKLKEAKEKIEKEKKETNVYVFLKNADLETVEAVAKELAEMKKEGLIKNAIIDVLDEKSEEEVDKMVEIADKYGIRLVVALEDE
B16: GBRAP_96_7092 (protein)
chain: ELEEVKELVRKLLEALDTDPEKAREYARELLKYPAELIAKALKELGVSPEEVVRIMRLLYEVDPSRIPDLAEALAEHLPSSVVVAVVEEAIRLEEARRAA
B17: GBRAP_125_2974 (protein)
chain: SREELLEDLATVAARLGFSEDDVAEAVRLAGEHSIKGTLYAIMAALGYDDIADLVEKITEEEAKEVLKRVAAYIKAHPDLTPEETAALLKEELKKAIAKK
B18: GBRAP_52_5903 (protein)
chain: MRERLRALVEEMLALVKAGDEEGARALARELAETLDDEELRELIEEVARLVREAPLEDLPYWERLAEIMAEALEEAGKDEALADLLLSRTAAAIYERLQR
B19: GBRAP_80_6802 (protein)
chain: AEEELKKYLAEIEKLDPELAKKVKKIIEEAKEMGVPLEDLAEFAKAVAELLKKDKELAKEMVEELEEELREEKEEGNSENARATVRVAAGEMLLAVEELE

Target: GABARAP, O95166
Assay: median log2 fold change of GCK-ALFA target abundance (FLAG IP / Myc IP barcode read proportion) (log2 ratio); each designed protein is fused to an ALFA-tag nanobody in HEK293 cells to bring the named protein to FLAG-tagged glucokinase (GCK); Myc marks an untargeted standard; higher = target protein stabilised (more abundant)
Details: target protein: 3xFLAG-MCP-GCK-ALFA reporter; HEK293 landing pad (RPLP)
In short: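 Binders fused to an ALFA nanobody were recombined as a library into HEK293 landing-pad cells, which were induced with 2 μg mL^−1 doxycycline and then transfected to express a FLAG-tagged target and a Myc-tagged standard. After 48 h, circular RNA barcodes recovered by anti-FLAG and anti-Myc immunoprecipitation of lysates were reverse transcribed, amplified and sequenced. Each binder's target abundance is the median log2 ratio of FLAG to Myc barcode read proportions, from barcodes present at ≥10^−7 in both replicates, binders carrying ≥3 barcodes per replicate, a 10^−6 pseudocount and pooled replicates.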

Chain of GABARAP, O95166 (O95166 whole entry, the tested form may be a part): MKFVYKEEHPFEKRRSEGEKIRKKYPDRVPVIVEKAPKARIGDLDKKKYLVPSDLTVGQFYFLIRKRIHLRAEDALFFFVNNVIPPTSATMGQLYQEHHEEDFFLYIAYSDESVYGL

Binder | median log2 fold change
B1 | -0.282
B2 | -0.126
B3 | 0.199
B4 | -0.0898
B5 | -0.11
B6 | 0.184
B7 | 0.0749
B8 | -0.0943
B9 | 0.0728
B10 | 0.285
B11 | 0.29
B12 | -0.176
B13 | 0.247
B14 | -0.054
B15 | 0.544
B16 | 0.0866
B17 | -0.0102
B18 | -0.0397
B19 | 0.0857
